# In PubChem BioAssay AID1508623 (National Center for Advancing Translational Sciences (NCATS), 2021):
# The whole screen tested about 48,000 compounds, of which about 450 (0.94%) were called active. Roughly 19% stayed inconclusive and do not appear here. The call rests on the fitted dose curve; in most records, active means well fitted inhibition curve with a large enough effect; inconclusive means small, poorly fitted or top-dose-only effect; inactive means no such curve, though single readings can be large or run the other way. This is one part of the list.
# Assay: Primary qHTS for Identification of Small Molecule Inhibitors of Huntingtin Promoter Activity; further: nearly all actives have a fitted effect of over 50% in size
# Conditions: HEK293 HTT promoter firefly luciferase reporter (activity 0% = vehicle and -100% = no light), 24 h; series mostly up to 57.5 µM; activity change, negative = inhibition: at the top concentration
# Procedure, shortened: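 HEK293 Fluc reporter, 2,500 cells/well, 24 h pre-culture; cpds up to 57.5 uM final, 24 h 37 degrees C; Dual-Glo, 10 min RT; normalized vehicle = 0%, zero RLU = -100%.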
row,SMILES,"activity change, negative = inhibition"
1,COc1cc(CNc2ccc3[nH]c(=O)[nH]c3c2)ccc1OCc1ccccc1F,inactive: -22.4%
2,COc1ccc(-n2ccn(Cc3ccccc3Cl)c(=O)c2=O)cc1OC,inactive: -9.4%
3,CN(C)c1ccc(C(CNS(=O)(=O)c2ccc(Br)cc2)N2CCCC2)cc1 (stereo unspecified),inactive: -2.69%
4,CC(C)Cc1nn2c(=O)cc(COC(=O)c3ccc4c(c3)OCO4)nc2s1,inactive: -22.4%
5,CCOC(=O)c1cc2c(=O)n3ccccc3nc2n(CCCOC)c1=NC(=O)C(C)(C)Oc1ccc(Cl)cc1,inactive: -3.96%
6,CC(=O)Nc1ccc(O)cc1,inactive
7,COc1ccc(CNC(=O)CSc2nc3ccsc3c(=O)n2Cc2ccccc2Cl)cc1,inactive: -30.5%
8,CCc1ccc(N2C(=O)CC(c3cc(OC)ccc3OC)C3=C2COC3=O)cc1 (stereo unspecified),inactive: -24.7%
9,Cc1ccc(NC(=O)Cn2ncn3c(cc4ccccc43)c2=O)c(C)c1,inactive: -21.2%
10,CCOc1ccc(C2CC(=O)n3nc(-c4ccc(C)cc4)nc3S2)cc1 (stereo unspecified),inactive: -0.394%
11,COc1ccccc1CNC(=O)Cc1csc2nc(-c3ccc(Cl)cc3)cn12,inactive: -26.5%
12,CCOc1cc(CNC(=O)c2ccc(C)c(NC(=O)c3nsc4ccccc34)c2)ccc1OC,inactive: 1.98%
13,CC(NC(=O)c1ccc2c(c1)N(Cc1ccc(Cl)cc1)C(=O)c1ccccc1S2(=O)=O)c1ccccc1 (stereo unspecified),inactive: -10.2%
14,CCOc1cc2sc(N3CCC(C(=O)Nc4ccc(C)cc4)CC3)nc2cc1Br,inactive: 85.1%
15,CCCCCn1c(=N)c(S(=O)(=O)c2ccccc2)cc2c(=O)n3ccccc3nc21,inactive: 7.23%
16,CCOc1ccc(CCNC(=O)Cn2nc(CC)n3c(cc4sc(CC)cc43)c2=O)cc1OCC,inactive: -15.3%
17,O=c1oc2c(CN3CCOCC3)c(O)ccc2cc1-c1ccc(Cl)cc1,inactive: 20.7%
18,CCOC(=O)c1sc(NC(=O)c2nc3ncccn3n2)c(C(=O)OC)c1C,inactive: -2.6% [at 11.5 µM]
19,CCc1ccc(CSc2nc(-c3ccc(OC)cc3)nc3c2Cc2c(CO)cnc(C)c2O3)cc1,inactive: -12.7%
20,COc1ccc(S(=O)(=O)c2cn(Cc3ccccc3)c3cc(N4CCCC4)c(F)cc3c2=O)cc1,inactive: -6.69%
21,COc1ccc(CCNC(=O)CCCCn2c(=O)c3ccccc3n(CC(=O)Nc3ccccc3C)c2=O)cc1OC,inactive: 0.636%
22,CCc1ccccc1NC(=O)Cn1c(=O)nc(-c2ccccc2)c2ccccc21,inactive: -3.09%
23,COc1ccc(CCNC(=O)CCn2c(=O)c3ccccc3n(Cc3ccc(Cl)cc3)c2=O)cc1OC,inactive: -8.31%

row,SMILES,"activity change, negative = inhibition"
1,CCn1c2c(c(=O)n3ncc(C(=O)Nc4cccc(Cl)c4C)c13)CN(Cc1ccc(OC)cc1)CC2,inactive: 1.62%
2,CCOC(=O)c1c(C)[nH]c(C)c1S(=O)(=O)N1CCC(C(=O)NCc2ccc(C)cc2)CC1,inactive: 15.6%
3,Cc1cc(C)cc(NC(=O)CSc2nncn3c2cc2occc23)c1,inactive: -20.9%
4,CCCn1c(SCC(O)c2cccc(OC)c2)nc2ccccc21 (stereo unspecified),inactive: -15.1%
5,COc1ccccc1C(=O)NC1(C(F)(F)F)C(=O)Nc2c1c(=O)[nH]c(=O)n2CCc1ccccc1 (stereo unspecified),inactive: -12.8%
6,Cc1ccc(C)c(CN2CCCN(Cc3cc(C)ccc3C)S2(=O)=O)c1,inactive: -12.5%
7,Cc1ccc(OCc2nc(-c3ccc(C(=O)N4CCN(c5ccc(Cl)cc5)CC4)cc3)oc2C)cc1,inactive: -22.6%
8,CC(C)CCNC(=O)CSc1c2c(nc3ccc(Cl)cc13)CCCC2,inactive: -21.1%
9,Cc1cccc(-c2nc(SCC(=O)Nc3cccc(C(F)(F)F)c3)n3[nH]c(=O)cc3n2)c1,inactive: -23.7%
10,CCOc1ccc(CNC(=O)C2CCCN(S(=O)(=O)c3ccc4c(c3)CCCC(=O)N4)C2)cc1 (stereo unspecified),inactive: -30.3%
11,Cc1cc(C(=O)NCc2ccccc2C)c2c(C)nn(-c3cccc(F)c3)c2n1,inactive: -18.9%
12,CCOC(=O)C1=C(CN2CCN(CC)CC2)NC(=O)NC1c1ccc(Cl)cc1 (stereo unspecified),inactive: 3.76%
13,CCCn1c(=O)sc2cc(NC(=O)c3ccccc3OCC)ccc21,inactive: -6.16%
14,CC[C@H]1OC(=O)[C@H](C)[C@@H](O[C@H]2C[C@@](C)(OC)[C@@H](O)[C@H](C)O2)[C@H](C)[C@@H](O[C@@H]2O[C@H](C)C[C@H](N(C)C)[C@@H]2O)[C@](C)(OC)C[C@@H](C)C(=O)[C@H](C)[C@@H](O)[C@]1(C)O,inactive: -14.3%
15,O=C(CC1N=C2c3ccccc3N=C(SCc3ccc(F)cc3)N2C1=O)NCc1cccs1 (stereo unspecified),inactive: -14%
16,CCn1c(SCC(=O)c2ccc([N+](=O)[O-])cc2)nnc1-c1ccc(Cl)cc1,inactive: -7.38%
17,CCc1ccc(NC(=O)Cn2ncc3c4ccccc4n(C)c3c2=O)cc1,inactive: 0%
18,CCCCn1cc(S(=O)(=O)c2ccc(OC)cc2)c(=O)c2cc(F)c(F)cc21,inactive: -27.5%
19,Clc1cccc(-c2csc(-c3nc(-c4ccc(Br)s4)cs3)n2)c1,inactive: -3.67%
20,CCN(CC)C(=O)c1sc2c(c1C)c(=O)n(-c1ccccc1)c(=O)n2Cc1cc(=O)n2ccccc2n1,inactive: -3.07%
21,COC(=O)Cn1c(CN2CCN(c3ccc(OC)cc3)CC2)nc2c1c(=O)[nH]c(=O)n2C,inactive: -6.89%
22,CCOC(=O)c1c(S(=O)(=O)NCC(=O)Nc2cccc(CC)c2)c(C)n(C)c1C,inactive: -5.3%
23,CCn1nc(C)c(CCN(C)C(=O)Nc2cc(C)cc(C)c2)c1C,inactive: -1.27%

row,SMILES,"activity change, negative = inhibition"
1,O=C(Nc1cnc(N2CCC(N3CCCCC3)CC2)c(C(=O)O)c1)c1ccc(Br)cc1,inactive: -13.2%
2,Cc1ccc(CSc2nc3ccc(NC(=O)COc4ccc(F)cc4)cc3s2)cc1,inactive: -3.48%
3,COc1ccc(-n2c(=O)c3c(c4cc(OC)ccc4n3C)n(Cc3ccc(F)cc3Cl)c2=O)cc1,inactive: -24.7%
4,Nc1nonc1C(=O)NCCNCc1ccc(Cl)c(Cl)c1,inactive: -4.14%
5,COc1ccccc1NC(=O)Cn1c(=O)n(Cc2ccccc2)c(=O)c2c3c(sc21)CN(C(C)=O)CC3,inactive: -0.728%
6,CCn1ccc2c(OCC(=O)NCc3ccc(C)cc3)cccc2c1=O,inactive: -1.56%
7,Cc1cc(C)nc(-n2nc(C)c3c2NC(=O)CC3c2cc(F)ccc2F)n1 (stereo unspecified),inactive: -14.8%
8,Cn1c(=O)cc(SCC(=O)N2CCN(c3ccccc3F)CC2)c2cc(Cl)ccc21,inactive: -5.19%
9,CC(C)Sc1ncc(Cl)c(C(=O)Nc2ccc(S(=O)(=O)Nc3ncccn3)cc2)n1,inactive: -25.6%
10,Cc1ccc(NC(=O)c2cc3c([nH]c2=O)CC(C)(C)CC3=O)c(C)c1,inactive: 76.7%
11,CC(C)c1ccc2c(c1)-c1ccccc1S(=O)(=O)N2CC(=O)N1CCCCC1,inactive: 28%
12,Cc1cc(Cl)ccc1OCC(=O)Nc1c(C(=O)c2ccccc2)oc2ccccc12,inactive: -9.29%
13,O=C(CSc1ncc(-c2ccccc2)[nH]1)Nc1cccc(C(F)(F)F)c1,inactive: -7.4%
14,Cc1ccccc1CCNC(=O)C1CCN(c2nc3ccccc3nc2C(F)(F)F)CC1,inactive: -22.1%
15,COC(=O)c1cc(NC(=O)c2sc3ncn(Cc4cccc(F)c4)c(=O)c3c2C)cc(C(=O)OC)c1,inactive: -2.34%
16,COc1cc(CN(C(=O)c2cccc(C)c2)c2ccccn2)cc(OC)c1OC,inactive: -30.5%
17,Cc1ccc(-n2c(SCC(=O)NCc3ccccc3)nc3c([nH]c4ccccc43)c2=O)cc1,inactive: -16.4%
18,COc1ccccc1NC(=O)CCS(=O)(=O)c1cc2c3c(c1)CCN3C(=O)CC2,inactive: 4.42%
19,O=C(NCc1ccccc1Cl)c1cc(=O)[nH]c2ccc(S(=O)(=O)N3CCCCC3)cc12,inactive: -3.06%
20,CC[C@@H]1C=C(C)C[C@H](C)C[C@H](OC)[C@H]2O[C@@](O)(C(=O)C(=O)N3CCCC[C@@H]3C(=O)O[C@H](C(C)=C[C@@H]3CC[C@H](Cl)[C@H](OC)C3)[C@H](C)[C@@H](O)CC1=O)[C@H](C)C[C@H]2OC,inactive: -10.6%
21,CCC1CCCCN1C(=O)c1nn(-c2ccc(OC)cc2)c(=O)c2c1c1ccccc1n2C (stereo unspecified),inactive: -15%
22,CCN(Cc1ccccc1)C(=O)CN1C(=O)COc2ccc(S(=O)(=O)N(CC)CC)cc21,inactive: -14.5%
23,Cc1ccc(C)c(N2CCN(C(=O)CCn3c(=O)c4cccn4c4cccnc43)CC2)c1,inactive: -1.99%

row,SMILES,"activity change, negative = inhibition"
1,COc1ccccc1Nc1nc(-c2ccccc2Cl)c2cc(Br)ccc2n1,inactive: -13.7%
2,CC1=C(C(=O)Nc2ccc(Cl)cc2)C(C(C)C)n2nc(SCc3ccc(Cl)cc3)nc2N1 (stereo unspecified),inactive: -9.45%
3,O=C(NCC1CCN(Cc2cccc(Cl)c2)CC1)c1cc2ccc3cccnc3c2[nH]1,inactive: -4.5%
4,COc1ccc(OC)c(CCNC(=O)C2=C(C)C(=O)OC23CCC(C)CC3)c1 (stereo unspecified),inactive: -26.3%
5,Cc1cc(C)c2c(CC(=O)Nc3ccc(S(=O)(=O)Nc4ncccn4)cc3)coc2c1,inactive: 18%
6,CCc1cccc(C)c1NC(=O)Cn1ccn(Cc2ccc(Cl)cc2)c(=O)c1=O,inactive: -29.4%
7,COc1ccc(NC(=O)CN(C)S(=O)(=O)c2cnc[nH]2)cc1Cl,inactive: 2.86%
8,Cc1cc(CCCOc2c(C)cc(-c3noc(C(F)(F)F)n3)cc2C)on1,inactive: 4.28%
9,Cc1ccc(-c2[nH]c(-c3ccccc3)nc2SCC(=O)NCC2CCCO2)cc1 (stereo unspecified),inactive: -26%
10,COc1ccc(-c2noc(COc3ccc(Br)cc3C)n2)cc1OC,inactive: -30.5%
11,CCc1ccc(OCC(=O)Nc2ccc(-c3nc4ncccc4o3)cc2)cc1,inactive: 32.8%
12,CCC(O)c1cc2c(cc1NC(=O)c1ccccc1F)OCCO2 (stereo unspecified),inactive: -3.59%
13,Cc1ccc(OCC(=O)Nc2cccc(C(=O)OCc3cc(=O)n4nc(C)sc4n3)c2)cc1,inactive: 20.4%
14,OCCOCCN1CCN(C(c2ccccc2)c2ccc(Cl)cc2)CC1 (stereo unspecified),inactive: -9.62%
15,O=C(O)c1ccc(NC(=O)c2cn(-c3ccccc3)nc2-c2ccc(Br)cc2)cc1,inactive: -10.1%
16,COc1cccc(CNC(=O)C(=O)Nc2ccc3nc4n(c(=O)c3c2)CCCCC4)c1,inactive: 2.2%
17,Cc1ccc(N2CCN(C(=O)c3cc(S(=O)(=O)N4CCCCC4)c[nH]3)CC2)c(C)c1,inactive: 16.2%
18,Cc1ccc(-c2cc(C(=O)Oc3ccccc3Cl)no2)cc1C,inactive: 4.34%
19,Cc1ccc2nc(Cl)c3cc(C(=O)NC4CCC(C)CC4)sc3c2c1 (stereo unspecified),inactive: 6.65%
20,Cc1cccc(OCC(=O)N(Cc2ccccc2)c2ccccn2)c1,inactive: -10.7%
21,COc1ccc(CCNC(=O)c2ccc3c(Cl)c4c(nc3c2)CCCC4)c(OC)c1,inactive: -25.5%
22,COC(=O)c1cnc(N2CCN(c3ccc(F)cc3)CC2)c2ccccc12,inactive: -14.7%
